Reference: PubChem BioAssay AID651820 (National Center for Advancing Translational Sciences (NCATS), 2012)
In all, about 340,000 compounds went through this assay and about 12,000 (3.5%) were called active. Inconclusive results, whose numbers are uncertain, are shown with a selection of clear calls. Calls come from the whole dose curve; as a rule, active = well fitted inhibition curve with a large enough effect; inconclusive = small, poorly fitted or top-dose-only effect, or another doubt; inactive = no such curve, though single readings can be large or run the other way. Potencies of inconclusive entries are left out as doubtful fits.

experiment: qHTS Assay for Inhibitors of Hepatitis C Virus (HCV); conditions: Huh7.5.1 HCVcc-Cre (HCVcc is cell-culture hepatitis C virus) infection, luciferase reporter, 44 h; series mostly up to 41.8 µM
Summary of the method: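 Antiviral activity was scored by luciferase reporter output from cells infected with HCVcc-Cre (~0.5 moi) in presence of compound, 44 h infection period, cells seeded 1,000/well 4 h prior.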
Potency is the fitted concentration of half-maximal effect; tags give direction and shape of the fitted curve.

Row | SMILES | Potency
1 | Cc1ccccc1C(=O)Nc1ccc2c(c1)CCCN2C(=O)c1cccs1 | inconclusive [inhibitor, single point]
2 | COC(=O)c1c(C)[nH]c(C)c1-c1ccccc1Cl | inconclusive [inhibitor, single point]
3 | Cc1ccc(C2(O)CN(c3ccccc3C)C3=[N+]2CCS3)cc1 (stereo not given) | inactive
4 | CC(=O)N1c2ccc(S(=O)(=O)N3CCC(C(=O)Nc4cccc(C)n4)CC3)cc2CC1C (stereo not given) | active: 1.26 µM
5 | Cc1ccc(S(=O)(=O)NCC(=O)NCC(=O)NC(C)c2ccccc2Br)cc1C (stereo not given) | inactive
6 | COc1ccc2c(C)nc(N/C(N)=N/S(=O)(=O)c3ccc(C)cc3)nc2c1 | inconclusive [inhibitor, single point]
7 | COC(=O)c1ccccc1NC(=O)CSc1nncn1-c1ccccn1 | inactive
8 | O=C1CCCC/C1=C\Nc1ccc(O)cc1 | inactive
9 | Cc1cccc([N+](=O)[O-])c1NC(=O)CN(Cc1ccccc1)Cc1ccccc1 | inconclusive [inhibitor, single point]
10 | CCOc1ccc(S(=O)(=O)NCCCN2CCOCC2)c2ccccc12 | inconclusive [inhibitor, partial curve, poor fit]
11 | Cc1cc(SC(C)C(=O)Nc2ncc(Cl)cc2Cl)nc2ccccc12 (stereo not given) | inconclusive [inhibitor, partial curve, poor fit]
12 | Cc1nn(C)c(C)c1NS(=O)(=O)c1ccc(OC(F)(F)F)cc1 | inconclusive [inhibitor, partial curve]
13 | C/C(=N\Nc1cc(C)nc(NCc2ccccc2)n1)c1ccc([N+](=O)[O-])cc1 | inconclusive [inhibitor, full curve]
14 | CCOC(=O)C(=CNc1cc(C(F)(F)F)ccc1N1CCOCC1)C(=O)OCC | inconclusive [inhibitor, partial curve]
15 | C[C@@]12C(=O)Nc3ccc(Cl)cc3C(=O)N1[C@H]1c3cc(Cl)ccc3OC[C@@H]1[C@@H]2c1ccccc1 | inactive
16 | NC(=O)Nc1cccc2ccccc12 | inconclusive [inhibitor, single point]
17 | COc1cccc(CNC(=O)CCCn2c(=S)[nH]c3cc4c(cc3c2=O)OCO4)c1 | inconclusive [inhibitor, partial curve]
18 | O=C(CN1CCc2ccccc2C1)Nc1cccc(S(=O)(=O)N2CCCC2)c1 | inactive
19 | Cc1cc(C(=O)CSc2nnc(-c3ccco3)o2)c(C)n1CC1COc2ccccc2O1 (stereo not given) | inconclusive [inhibitor, single point]
20 | O=C(O)c1csc(-c2ccccc2)n1 | inactive
21 | COc1cc(C(=O)NC(=S)Nc2cccc3nc(C)ccc23)cc(OC)c1OC | inconclusive [inhibitor, full curve]
22 | O=C(Nc1ccccc1)/C(=C\c1cccs1)NC(=O)c1ccccc1 | inactive
23 | Clc1ccc(CN2CCN(c3ncccn3)CC2)cc1Cl | inactive
24 | COc1ccc(N2CCN(C(=O)CCC(=O)N3CC(C)Oc4ccccc43)CC2)cc1 (stereo not given) | inconclusive [inhibitor, partial curve]
25 | CCOc1ccccc1NC(=O)c1oc2ccccc2c1NC(=O)C1CCCO1 (stereo not given) | inconclusive [inhibitor, single point]

Row | SMILES | Potency
26 | CCc1nc2ccc(N3CCN(C)CC3)cc2nc1CC | inconclusive [inhibitor, partial curve, poor fit]
27 | CC(OC(=O)c1ccc2ccccc2c1)C(=O)N(C)Cc1ccccc1 (stereo not given) | inconclusive [inhibitor, single point]
28 | O=C(COc1ccccc1)NC1C(=O)N2C(C(=O)O)=C(Cl)CSC12 (stereo not given) | inactive
29 | O=C(COC(=O)c1n[nH]c2ccccc12)Nc1ccc(S(=O)(=O)N2CCCC2)cc1 | inconclusive [inhibitor, partial curve]
30 | CCC(CC)COC(=O)C1=C(C)NC(=O)NC1c1ccc(OC)cc1 (stereo not given) | inconclusive [inhibitor, single point]
31 | CCOc1ccc(CCNC(=O)c2cc3sccc3n2C)cc1OCC | active: 6.31 µM
32 | COc1ccc(C(=O)/C=C/Nc2ccc(NC(C)=O)cc2)cc1OC | inactive
33 | CCOc1ccc(S(=O)(=O)N2CCOCC2)cc1NC(=O)CSC(=S)N1CCCC1 | inconclusive [inhibitor, partial curve]
34 | CS(=O)(=O)c1nc(-c2ccc(Br)cc2)cc(-c2ccccc2)c1C#N | inconclusive [inhibitor, single point]
35 | O=C(O)/C=C/C(=O)c1ccc2c(c1)CCc1ccccc1-2 | active: 12.6 µM
36 | CCOC(=O)c1cc(CC)sc1NC(=O)C1CC(=O)NN1Cc1ccccc1 (stereo not given) | active: 5.62 µM
37 | COC1=CC(=O)O[C@@H](/C=C/c2ccccc2)C1 | inactive
38 | CCOC(=O)c1cc(C(C)(C)C)oc1CNC(=O)c1c(C)oc2c1CCCC2 | inconclusive [inhibitor, partial curve]
39 | CCCS(=O)(=O)N1CCc2cc(OC)c(OC)cc2C1 | inactive
40 | O=C(CN1CCN(Cc2ccc(Cl)cc2)CC1)N1CCc2ccccc21 | inconclusive [inhibitor, single point]
41 | CN1CCN(c2cc([N+](=O)[O-])ccc2Cl)CC1 | inactive
42 | CNc1nc(N/N=C/c2cc([N+](=O)[O-])ccc2F)nc(Nc2ccccc2)n1 | inconclusive [inhibitor, single point]
43 | CCOC(=O)c1c(NC(=O)CSc2nnnn2CC)sc(C)c1C | inconclusive [inhibitor, full curve]
44 | CCOCCCn1c(=N)c(C(N)=S)cc2c(=O)n3cccc(C)c3nc21 | inconclusive [inhibitor, full curve, poor fit]
45 | COc1ccc(CNC(=O)c2ccc3c(c2)NC(=O)C(C)S3)cc1 (stereo not given) | inactive
46 | CCN1CCCc2cc(CN(CCN3CCOCC3)C(=S)Nc3cccc(Cl)c3)ccc21 | inconclusive [inhibitor, partial curve]
47 | Cc1nn(-c2ccccc2)c(C)c1C(=O)OCC(=O)NC(=O)NC1CCCC1 | active: 8.91 µM
48 | Cc1occc1C(=O)N/N=C/C=C\c1ccccc1[N+](=O)[O-] | inconclusive [inhibitor, partial curve]
49 | CCCS(=O)(=O)N1CCC(C(=O)NCCCOCC)CC1 | inactive
50 | O=C(Nc1cccc(Br)c1)c1ccc(CN2CCc3ccccc3C2)cc1 | active: 2.24 µM

Row | SMILES | Potency
51 | [O-][n+]1onc2c3ccnnc3ccc21 | inconclusive [inhibitor, partial curve]
52 | COc1cccc(OCCCOc2ccc([N+](=O)[O-])cc2Cl)c1 | inactive
53 | COc1cccc(/C=N/NC(=O)C(=O)Nc2ccccc2OC(F)(F)C(F)F)c1O | inconclusive [inhibitor, single point]
54 | O=C(Nc1ccc(Cl)cc1)Nc1ccc(N2CCOCC2)cc1 | inactive
55 | CCN1CCN(CC(=O)n2c3c(c4ccccc42)CC(C)CC3)CC1 (stereo not given) | active: 3.16 µM
56 | O=S(=O)(Nc1nc2ccccc2s1)c1ccc(Br)s1 | inactive
57 | OCCNc1nc(SCc2ccccc2)nc2sc3c(c12)CCC3 | inconclusive [inhibitor, single point]
58 | CC(C)(C)c1ccc(S(=O)(=O)N2CCN(C(=O)C3CCC3)CC2)cc1 | inconclusive [inhibitor, single point]
59 | NC(CSC(c1ccccc1)(c1ccccc1)c1cccc2ccccc12)C(=O)O (stereo not given) | inactive
60 | COc1ccccc1-c1cc(C(F)(F)F)nc(S(C)(=O)=O)n1 | inconclusive [inhibitor, single point]
61 | O=C(CNc1cccc(S(=O)(=O)N2CCCCCC2)c1)Nc1cccc([N+](=O)[O-])c1 | inconclusive [inhibitor, partial curve]
62 | CCOc1ccc2nc(NC(=O)C3CCN(C(=O)c4ccco4)CC3)sc2c1 | inactive
63 | O=C(c1cc(-c2ccc(Cl)c(Cl)c2)on1)N1CCCCC1 | inactive
64 | O=C(c1ccccc1)c1ccc2nc(-c3ccc(NC(=O)c4ccccc4Br)cc3)[nH]c2c1 | active: 25.1 µM
65 | CC(C)C(OC(=O)c1ccccc1)c1nccc2ccccc12 (stereo not given) | inconclusive [inhibitor, single point]
66 | Cc1cc(C)nc(N2CCN(C(=O)c3ccc(S(=O)(=O)N4CCCCCC4)cc3)CC2)n1 | active: 11.2 µM
67 | O=C(Cc1ccc(NC(=O)C2CCN(C(=O)C3CCC3)CC2)cc1)Nc1cccc(C(=O)N2CCCCC2)c1 | inconclusive [inhibitor, single point]
68 | O=C(C1CC1)N1CCc2cc(Br)cc(S(=O)(=O)N3CCOCC3)c21 | inactive
69 | CCOc1ccc(OCCOc2ccc(/C=C/C(=O)O)cc2OCC)cc1 | inconclusive [inhibitor, single point]
70 | CC1C(=O)CCN(C(C)(C)C)C1C (stereo not given) | inactive
71 | CCC(C)c1ccc(NC(=S)NN2CCOCC2)cc1 (stereo not given) | inactive
72 | CN1CCN(c2ccc(NC(=S)NC(=O)c3cccc4c(Cl)cccc34)cc2)CC1 | inconclusive [inhibitor, full curve]
73 | CN(C)S(=O)(=O)c1ccc(C(=O)NCc2nnc(SCC(=O)c3ccccc3)o2)cc1 | inactive
74 | CCOC(=O)c1cc2c(=O)n3ccccc3nc2n(CC2CCCO2)c1=NC(C)=O (stereo not given) | inconclusive [inhibitor, partial curve]
75 | Cn1c(=O)c2ccccc2n(Cc2cccc(F)c2)c1=O | inconclusive [inhibitor, single point]
